# US10829440B2, “Antibacterial compounds and methods of making and using same” (Brown University, priority 2015, dated 2020)
# Tested on: B. subtilis
# Assay: Single concentration (250 μM) whole-cell resazurin fluorescence assay
# Details: 250 μM single-concentration assay
# Method: The assay was performed in LB broth.
# Tested compounds are exemplified in Scheme 14. In an initial set-up, each compound was evaluated at the single concentration of 250 μM in triplicate. […] After incubation of the bacteria with the inhibitors for four hours, resazurin dye was added and the plate was immediately placed in a plate reader. Fluorescence of each well was measured at 590 nm at 0, 5, 10, 20, and 60 min after addition of the dye. A higher growth rate of bacteria produces more resorufin and thus more fluorescence. Lower fluorescence therefore indicates better growth inhibition.
# Fluorescence was further evaluated as it developed over time.
compound,measurement,value
O=C(NC1CCCCC1)C(C1CCCCC1)N(C(=O)c1ccccc1I)C1CCCCC1 (stereo not shown) [fgkc],degree of inhibitory activity across all three runs,highest degree of inhibitory activity
